In the supplement of paper PMC11417369:
± gives the standard deviation of the averaged measurements. The list shows a part of the results.

What follows are sequences tested on PfAP2-EXP AP2 domain (GST-tagged) (assay: gcPBM binding intensity (ln(normalized median fluorescence intensity)); higher = stronger DNA binding).
Outline: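 Plasmodium falciparum DNA-binding domains carrying a GST tag were expressed in E. coli and applied for 1 h, at about 25 μg on average, to an Agilent 4 × 180k array. The array held primer-extended double-stranded 36-bp intergenic genomic probes together with negative controls, and binding took place in 1× PBS with 1% milk, 0.2 mg/ml BSA, 0.5% salmon testes DNA and 0.03% Triton X-100. An Alexa488 anti-GST antibody detected bound protein, and the array was scanned at 488 nm. Binding intensity is taken as the highest Masliner-normalised natural-log median intensity across replicate spots of either probe orientation.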

For “ATATATGTGTATGTATGTACTCATTTTTGTATATAT [XGTACX_site490]”, which “gcPBM binding intensity (ln)” value is on record?
The value was 8.42 ± 0.28.

Which “gcPBM binding intensity (ln)” value does the source give for “AAACAAAGAAAGAACACACATACACAATATACCTAC [CACACA_site2835]” here?
Its value is 8.81 ± 0.63.

With “ATAATGATATATTATAAACACACAAAGATGAATATA [CACACA_site8914]” as the sequence, how does the “gcPBM binding intensity (ln)” value read?
The value was 8.57 ± 0.4.

How did the “gcPBM binding intensity (ln)” value turn out when “TATTTTGAAAAAGTTGCACACAAAATTTAAAAAAAA [CACACA_site8470]” was run?
The value was 8.36 ± 0.39.

For “CATTTAAATTATAAGTGTACACGATCATATTTCATC [XGTACX_site349]”, which “gcPBM binding intensity (ln)” value is on record?
The value was 8.89 ± 0.5.

Which “gcPBM binding intensity (ln)” value does the source give for “TATATATATATATATGTACACACATATATACCTTTC [CACACA_site8854]” here?
The value was 10.2 ± 0.26.

With “AAATAAAAACATAACAGTACAGTTAACATTTTTATA [XGTACX_site3479]” as the sequence, how does the “gcPBM binding intensity (ln)” value read?
The value was 8.29 ± 0.35.

With “CCAACATTTTTTAGAAGTACATTTTTATATTTATTA [XGTACX_site5179]” as the sequence, how does the “gcPBM binding intensity (ln)” value read?
The value was 8.31 ± 0.26.

For “TGTAATAATCTTACATGTACATACATATATTATATA [XGTACX_site4012]”, which “gcPBM binding intensity (ln)” value is on record?
The value was 8.7 ± 0.32.

How did the “gcPBM binding intensity (ln)” value turn out when “AGGTACTTTTTTAAAACACACATATAATATATACAC [CACACA_site1065]” was run?
The value was 8.63 ± 0.3.

With “GATGGAAGGTGAAAGCGTACTTATTATAGTAATATA [XGTACX_site303]” as the sequence, how does the “gcPBM binding intensity (ln)” value read?
The value was 8.71 ± 0.47.

With “TACATTCATGTGTATTGTACAAACTATTTTATAATA [XGTACX_site7744]” as the sequence, how does the “gcPBM binding intensity (ln)” value read?
Its value is 8.49 ± 0.45.

Which “gcPBM binding intensity (ln)” value does the source give for “ACAATCCTAACGACATGTACAAATATATATATTTTT [XGTACX_site7335]” here?
Its value is 8.55 ± 0.56.

“TACATATTTTTTATGTGTACATATTTTTTATGTGTA [XGTACX_site443]” was tested. Which “gcPBM binding intensity (ln)” value did it give?
The value was 8.27 ± 0.16.

“GCATATTTTATAATTTTACACACCATATAAAATAAT [CACACA_site8904]” was tested. Which “gcPBM binding intensity (ln)” value did it give?
Its value is 8.77 ± 0.43.

Which “gcPBM binding intensity (ln)” value does the source give for “TATATAATATATATAGTGCATAAGTTCAAAAGAATA [GTGCAC_site9805]” here?
The value was 8.64 ± 0.13.

With “TATATTTATTTATACACATGCATATTTTAAGGGCTC [TGCATGCA_site885]” as the sequence, how does the “gcPBM binding intensity (ln)” value read?
The value was 8.72 ± 0.4.

How did the “gcPBM binding intensity (ln)” value turn out when “ATTTATTTATTTATTTGTACATATAAATATATCAAA [XGTACX_site7383]” was run?
Its value is 8.46 ± 0.18.

“AGTATACAGATATATACACACATATATTTATTTATA [CACACA_site6279]” was tested. Which “gcPBM binding intensity (ln)” value did it give?
The value was 8.29 ± 0.46.

With “CATATAATTATATATCGTACATATTAATATAATTAC [XGTACX_site401]” as the sequence, how does the “gcPBM binding intensity (ln)” value read?
Its value is 8.55 ± 0.33.

Which “gcPBM binding intensity (ln)” value does the source give for “AAAGATGTTATATATATGTATATATATATGTAATAT [TGCATGCA_negctrl_site386]” here?
The value was 8.29 ± 0.33.

For “AGATATAGGAAAATAATATATATATATTTTTTTTTT [CACACA_negctrl_site461]”, which “gcPBM binding intensity (ln)” value is on record?
Its value is 8.06 ± 0.42.

“ATATATATATATATATGTACTTATAAGGTATATTTA [XGTACX_site3327]” was tested. Which “gcPBM binding intensity (ln)” value did it give?
Its value is 10 ± 0.59.

For “AAAAAAAAATAAATAAATATATATAATATTTATGTT [GTGCAC_negctrl_site520]”, which “gcPBM binding intensity (ln)” value is on record?
Its value is 8.1 ± 0.37.

For “TTATAATCCATAATTGCACACAATATATTCATATTT [CACACA_site3916]”, which “gcPBM binding intensity (ln)” value is on record?
Its value is 8.54 ± 0.2.

For “AATATACAATAAAGGTGTACACATATATGATGCAAG [XGTACX_site7607]”, which “gcPBM binding intensity (ln)” value is on record?
The value was 9.22 ± 0.43.

“AAAAAGAAAAAACTTACACACATATATACAGACATG [CACACA_site550]” was tested. Which “gcPBM binding intensity (ln)” value did it give?
The value was 8.51 ± 0.28.

How did the “gcPBM binding intensity (ln)” value turn out when “AACAAATAAATAAATAAAAAGCAAATATGTCTATAT [GTGCAC_negctrl_site414]” was run?
The value was 8.84 ± 0.48.

With “ATAAAATAAGATCTTTTTTTTTTTTTTTTCTTTTCT [XGTACX_negctrl_site73]” as the sequence, how does the “gcPBM binding intensity (ln)” value read?
Its value is 8.14 ± 0.69.

For “TGGTTAATATGTGAAAGTACATATTATATTAAAATG [XGTACX_site2636]”, which “gcPBM binding intensity (ln)” value is on record?
The value was 8.49 ± 0.34.

“TACAGATAATATATTGCACACGTCAGAATAATATAG [CACACA_site5036]” was tested. Which “gcPBM binding intensity (ln)” value did it give?
Its value is 8.73 ± 0.33.

For “TATAACTTTTTTATTACACACCTATGCAATATTATA [CACACA_site6570]”, which “gcPBM binding intensity (ln)” value is on record?
Its value is 8.62 ± 0.47.

How did the “gcPBM binding intensity (ln)” value turn out when “TTTTTTTTTTTTTTTGCACACAGGGTGTAGGACAAG [CACACA_site2842]” was run?
The value was 8.6.

How did the “gcPBM binding intensity (ln)” value turn out when “ATATATATATTCCACACACACACAAAAAAAAAAAAA [CACACA_site3648]” was run?
The value was 9.07 ± 0.23.

Which “gcPBM binding intensity (ln)” value does the source give for “CATTTGATAAGATACACACACAAGGAAAAAAATAAA [CACACA_site350]” here?
The value was 8.82 ± 0.57.

Which “gcPBM binding intensity (ln)” value does the source give for “TATAATAATATTAACACACGTACAAAAGCAAACAAC [CACACA_site3494]” here?
Its value is 9.46 ± 0.51.

With “TTATAATATCTATATATCTTTTACATTTATAAGTTT [CACACA_negctrl_site1473]” as the sequence, how does the “gcPBM binding intensity (ln)” value read?
The value was 8.34 ± 0.28.

“GTCTATTCAAAAAAGTGTACGGACATATAAACATAC [XGTACX_site6516]” was tested. Which “gcPBM binding intensity (ln)” value did it give?
The value was 9.04 ± 0.28.

“TTAGCTATGATATATACACACCAACGAACGAAGAAA [CACACA_site6657]” was tested. Which “gcPBM binding intensity (ln)” value did it give?
The value was 8.85 ± 0.54.

For “TATGGTGTAATTTAGTGTATTATATTATTTTGGTTG [GTGCAC_negctrl_site445]”, which “gcPBM binding intensity (ln)” value is on record?
The value was 8.67 ± 0.14.

Which “gcPBM binding intensity (ln)” value does the source give for “TGCAGTCTGGAGAAAAGTACATAGTATCTGGTATCT [XGTACX_site2545]” here?
The value was 8.49 ± 0.23.

For “CTGTATTCATAATTCACACAAATGGTTTATATGAAT [CACACA_site4315]”, which “gcPBM binding intensity (ln)” value is on record?
Its value is 8.5 ± 0.31.

With “TATATATATATATACACACACACACCCATATATATA [CACACA_site2538]” as the sequence, how does the “gcPBM binding intensity (ln)” value read?
Its value is 10.2 ± 0.24.

“CATATTTGCACTTTCACACATAAATATATAACTATA [CACACA_site6016]” was tested. Which “gcPBM binding intensity (ln)” value did it give?
The value was 8.91 ± 0.31.

With “CATACATACAGATATACACACATATATAATAATATA [CACACA_site5477]” as the sequence, how does the “gcPBM binding intensity (ln)” value read?
The value was 8.62 ± 0.31.

With “TTTTTATTTTTGTAGTGTACTTTATTTTTTTTGTTT [XGTACX_site8887]” as the sequence, how does the “gcPBM binding intensity (ln)” value read?
The value was 8.71 ± 0.42.

“TTTAAACAAGGATCCACACACCCCAAAAAAAAAAGA [CACACA_site680]” was tested. Which “gcPBM binding intensity (ln)” value did it give?
The value was 9.24 ± 0.76.

For “CAAAAGTATAATAATACACACACTTTAAAAGTTAAA [CACACA_site3343]”, which “gcPBM binding intensity (ln)” value is on record?
The value was 8.48 ± 0.37.

Which “gcPBM binding intensity (ln)” value does the source give for “AAAAATAAAATAAAATAAAATAAACATACCATATGT [CACACA_negctrl_site594]” here?
Its value is 8.55 ± 0.29.

For TAGATTCTTGAATAAGTGCAAAATATAATATTTATT, which “gcPBM binding intensity (ln)” value is on record?
Its value is 8.51 ± 0.29.

How did the “gcPBM binding intensity (ln)” value turn out when “TTACAAATGGTTTACACACACATAATTGTATCAATT [CACACA_site4167]” was run?
Its value is 8.52 ± 0.36.

With “TAATATATGAGAAATTGTACAGAAAGGAATATGCTT [XGTACX_site5300]” as the sequence, how does the “gcPBM binding intensity (ln)” value read?
The value was 8.85 ± 0.45.

Which “gcPBM binding intensity (ln)” value does the source give for “ATATTATTGTAGAAATGTACATATATATATATATAT [XGTACX_site1882]” here?
The value was 10.1 ± 0.29.

Which “gcPBM binding intensity (ln)” value does the source give for “AAGAAATATTTATACACACACACAAACATATATATA [CACACA_site1912]” here?
The value was 8.77 ± 0.47.

How did the “gcPBM binding intensity (ln)” value turn out when “TATATATGTTCAATATGTACATATATATAAGTGTAT [XGTACX_site5157]” was run?
The value was 8.52 ± 0.4.

“AATACACAAATATATTGTACATATATATATATATAT [XGTACX_site2440]” was tested. Which “gcPBM binding intensity (ln)” value did it give?
The value was 9.85 ± 0.34.
